Reference: PubChem BioAssay AID1240 (Sanford-Burnham Center for Chemical Genomics, 2008)
In all, about 50,000 compounds went through this assay and about 800 (1.6%) showed an effect of 50% or more. The list shows a part of the results.

molecular target: Bcl-2-like protein 10 (Homo sapiens) (UniProt Q9HD36); test: TR3 peptide-Bcl-B binding displacers, biochemical primary FP assay, phenotype converters (AID 1240); details: GST-Bcl-B / FITC-TR3 peptide fluorescence polarization; stronger effect = higher value; compound at 3.75 mg/L;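 also: 0% = Bcl-B with tracer peptide and DMSO and 100% = tracer peptide lacking Bcl-B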
Sequence of UniProt Q9HD36 (Q9HD36 whole entry, looked up): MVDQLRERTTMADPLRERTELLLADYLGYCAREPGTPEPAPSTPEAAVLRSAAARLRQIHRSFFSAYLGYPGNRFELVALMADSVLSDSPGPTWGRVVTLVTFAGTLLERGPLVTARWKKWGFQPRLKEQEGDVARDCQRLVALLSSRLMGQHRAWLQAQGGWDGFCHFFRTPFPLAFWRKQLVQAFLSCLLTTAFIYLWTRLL

Point of comparison: Cc1ccc(NC(=O)C2CCCCC2C(=O)O)cc1Cl (stereo unspecified), displacement -12.9%. Against it:
- COc1ccc(C(N)=O)cc1NC(=O)C(C)Oc1ccccc1 (stereo unspecified) — higher, -0.2%
- O=C(O)c1cc(NC(=O)c2ccc(Cl)c(Cl)c2)cc(C(=O)O)c1 — higher, 4.5%
- COc1ccc(Cc2noc(-c3ccc(Br)cc3)n2)cc1 — higher, 3.5%
- CC(C)(C)c1ccc(C(=O)NNC(=O)c2ccco2)cc1 — higher, -12.3%
- CN1CCN(Cn2c(O)c(N=NC(=O)c3ccncc3)c3ccccc32)CC1 — higher, -3.7%
- O=C(/C=C/c1ccccc1)Nc1ccccc1I — higher, 2.3%
- COc1cccc2cc(C(=O)Nc3ccc(I)cc3)c(=O)oc12 — higher, 12.7%
- CCN(CC)c1ccc(C(=O)NCCc2ccccc2)cc1 — higher, -0.8%
- COc1ccc(C)cc1NC(=O)c1cccc(I)c1 — higher, 14.1%
- CC1=NN(c2cccc(C(=O)O)c2)C(=O)/C1=C\c1cccc([N+](=O)[O-])c1 — higher, 6.2%
- COc1ccc(/C=N/N=C(\N)c2nonc2N)c(OC)c1 — higher, 17.6%
- COc1ccc(NC(=O)NCCOc2cc(C)ccc2C(C)C)cc1OC — higher, 18.1%
- O=C(NCCc1ccccc1)c1c(F)cccc1Cl — higher, -9.1%
- O=C(N=Nc1c(O)[nH]c2ccc(Br)cc12)c1ccc([N+](=O)[O-])cc1 — higher, 6.8%
- COc1ccccc1/C=N/N=C1/NC(=O)C(Cc2ccc(C)cc2)S1 (stereo unspecified) — lower, -23.6%
- Cc1ccc(OCC(=O)Nc2ccc(C(=O)OCC(C)C)cc2)c(C)c1 — higher, 3.1%
- O=C(CSc1nc2ccccc2s1)NCCO — higher, 21.2%
- COc1ccc(/C=N/n2cnnc2SCc2ccccc2)cc1OC — higher, 1%
- CCN1CCN(CC(O)COc2ccc(Cl)cc2C)CC1 (stereo unspecified) — higher, 6.6%
- CCN1C(=O)/C(=C\c2ccccc2OS(=O)(=O)c2ccc(C)cc2)SC1=S — higher, 13.4%
- COc1ccc(-c2ccc(/C=C3\C(=O)NN(c4ccc(Cl)c(Cl)c4)C3=O)o2)c([N+](=O)[O-])c1 — higher, 0.8%
- COC(=O)c1ccccc1NC(=O)c1ccccc1C — higher, -6.5%
- O=C(Nc1ccc(-c2ccc([N+](=O)[O-])cc2)cc1)c1cccs1 — higher, 10.1%
- CC(C)N1C(=O)/C(=C\c2ccco2)SC1=S — higher, 1.7%
- Cc1c(N2C(=O)S/C(=C\c3ccc(N(C)C)cc3)C2=O)c(=O)n(-c2ccccc2)n1C — higher, 2.5%
- O=C(NC(=S)Nc1ccc2oc(-c3cccc4c(Br)cccc34)nc2c1)c1ccco1 — higher, 14.6%
- Cc1ccc(N2C(=O)/C(=C/c3cc(C)n(C)c3C)C(=O)NC2=S)c(C)c1 — higher, 48.3%
- COc1ccc(-c2nc3c(n2O)CCC/C3=N\O)cc1OC — higher, 16.6%
- Cc1cccc(NC(=S)NNC(=O)c2cccc(C)c2)c1 — higher, -6.7%
- O=C(Nc1ccccc1)Nc1nnc(-c2ccc(Br)cc2)s1 — higher, 9.1%
- CC1CCC(N2CCN(C(=O)c3ccco3)CC2)CC1 (stereo unspecified) — higher, 10.9%
- Cc1cccc(C)c1OCC(=O)N/N=C/c1ccc(O)c([N+](=O)[O-])c1 — higher, -7.4%
- CC1(C)CC(=O)C=C(Nc2ccc(F)c(F)c2)C1 — higher, -3%
- Cc1cc(-c2ccc(C=C3C(=O)N(C)C(=O)N(C)C3=O)o2)cc([N+](=O)[O-])c1C — higher, 1.7%
- O=C1NN(c2ccc(Cl)cc2)C(=O)/C1=C\c1ccc(-c2ccc(Cl)c(C(=O)O)c2)o1 — higher, 22.1%
- Cc1ccccc1OCC(=O)Nc1cc([N+](=O)[O-])ccc1Cl — higher, -4.5%
- O=C1NC(=S)S/C1=C\c1ccccc1OS(=O)(=O)c1ccc([N+](=O)[O-])cc1 — higher, 3.9%
- O=S(=O)(NC1c2ccccc2Oc2ccccc21)c1ccc(Cl)cc1 — higher, 1%
- CN(C)C1(c2cccnc2)CS(=O)(=O)C1 — higher, -0.1%
- CS(=O)(=O)N1CCN(c2ccc([N+](=O)[O-])c(N3CCCCC3)c2)CC1 — higher, 4.5%
- COc1ccc(C(=O)/C=C/c2ccc3c(c2)OCO3)cc1 — higher, -4.6%
- Brc1ccc(Sc2nc3ccccc3[nH]2)cc1 — higher, -3.2%
- O=C1CC2c3ccccc3C1C1C(=O)N(CCO)C(=O)C21 (stereo unspecified) — higher, -1.6%
- CN=C(Nc1ccc(Cl)c(Cl)c1)SC1CC(=O)N(c2cccc(OC)c2)C1=O (stereo unspecified) — higher, -3.9%
- CC(C)(C)C(=O)Nc1sc2c(c1C(=O)Nc1ccccc1)CCCCC2 — higher, -8.7%
- O=c1c2ccccc2nc(/C=C/c2cccc([N+](=O)[O-])c2)n1Cc1ccccc1 — higher, 12.9%
- Cc1ccnc(NC(=O)CCCOc2ccc(Cl)cc2Cl)c1 — higher, -11.3%
- COc1cc(C(=O)N/N=C/c2ccsc2C)cc(OC)c1OC — lower, -20.1%
- COc1ccccc1-c1nc(-c2cccc([N+](=O)[O-])c2)no1 — higher, 6.4%
- COC(=O)c1c(C)oc2cc(Br)c(OCc3ccc(F)cc3)cc12 — higher, 7.3%
- COc1ccc(OC)c(C2=C/C(=C/c3cccc(OC)c3O)C(=O)O2)c1 — higher, 13.5%
- COc1ccc(-n2c(C)nc(=O)c(-c3ccccc3)c2C)cc1 — higher, 1.6%
- NC(N)=NS(=O)(=O)c1ccc(NS(=O)(=O)c2ccccc2)cc1 — higher, 6.9%
- COc1ccc(OCCNC(=O)c2ccc(I)cc2)cc1 — lower, -18.5%
- Cc1ccccc1-n1c(O)c(C=Nc2ccc(Cl)cc2)c(=O)[nH]c1=O — higher, 2.6%
- N#Cc1cc2c(N)c(C(N)=O)sc2nc1N — higher, 8.9%
- COc1ccc(C2/C(=C(\O)c3ccc(Cl)cc3)C(=O)C(=O)N2c2cccnc2)cc1OC (stereo unspecified) — higher, -7.9%
- O=C1NN(c2ccccc2)C(=O)/C1=C\C=C\c1ccccc1 — higher, 30.9%
- O=[N+]([O-])c1ccc(/C=N/Nc2cc(N3CCOCC3)nc(N3CCOCC3)n2)cc1 — higher, 8.9%
- Cc1ccccc1/C=N/NC(=O)CCc1ccccc1 — higher, -9.7%
- Cc1csc(-c2cc3ccc(O)c(CN4CC5(C)CC4CC(C)(C)C5)c3oc2=O)n1 (stereo unspecified) — higher, 138%
- C=CCn1c(SCC(=O)Nc2ccc(OC)cc2)nc(O)c(Cc2ccccc2)c1=O — higher, -0.2%
- O=Cc1cc(OCc2ccccc2)ccc1O — higher, -6%
- O=C(COc1ccc2ccccc2c1)NCc1ccc(Cl)cc1 — higher, -5.5%
- COc1ccc(NC(=O)C(=O)NCc2ccc(Cl)cc2)c(OC)c1 — higher, 7.2%
- O=C1c2cc3ccccc3c(-c3ccccc3)c2C(=O)N1c1cccc(O)c1 — higher, -1.2%
- O=C1c2cccc([N+](=O)[O-])c2C(=O)N1c1ccc2[nH]c(=S)sc2c1 — higher, -9.2%
- C=CCOC(=O)C1=C(C)NC(=S)NC1c1ccccc1OCC (stereo unspecified) — higher, 2.1%
- CC(C)(C)CNC(=O)C(=O)NCCc1ccccc1 — higher, 4.5%
- CCOc1cc(/C=N/n2cnnc2)ccc1OCCOc1ccccc1C — higher, -5.8%
